Sequences with one replicate were seen in a single cluster, so their values are uncertain.

The test system of the data set is ATP. As to the kind of experiment: switch fluorescence ratio, 500 uM ATP over buffer (Cy3 cluster intensity, sum of 5 cycles each) (fold (ratio)); higher = stronger signal-on switching upon ATP binding; sequences stand for … in TCGTCGGCAGCGTCAGATGTGTATAAGAGACAGTTTTTTTTTTTTTTTTTTTTTTTTT…TC. Particulars: aptamer strand: ATP DNA aptamer (quencher-CACCTGGGGGAGTATTGCGGAGGAAGG + anchor), 100 nM annealed; ATP concentration: 500 uM; one replicate. The gist of the method: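 The quencher-labelled ATP aptamer, at 100 nM, was annealed to Cy3-labelled switching-strand clusters on a modified Illumina MiSeq flow-cell. The clusters were imaged in selection buffer, then after 15 min with 500 uM ATP at 22 °C, and this buffer/ATP cycle ran five times with NaOH stripping and re-annealing between runs. Per-cluster fluorescence ratios, summed target-cycle over summed buffer-cycle Cy3 intensity, were averaged per switch-domain sequence. Clusters outside 100-1000 RFU were excluded.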
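Note: ATP exposure 15 min at 22 °C before imaging.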

With GGTTCTACT, the switch fluorescence ratio amounted to 0.994.

Take GTTATTACTG: the switch fluorescence ratio amounted to 1.01. The figure for ATGGAAAGCC is 0.99; for TGAAGGTGGT it is 1.02; for ACGAAACTCC it is 1.11. The figure for CTCCCCGGCG is 1.05.

Regarding GGTATCGAAA, the switch fluorescence ratio amounted to 0.954. For CACGGCTTTG, the switch fluorescence ratio turned out to be 1.02. Take TGAGCATGGA: the switch fluorescence ratio turned out to be 1.02.

Regarding GATGTAAATA, the switch fluorescence ratio came to 1.02. Turning to GGCCCCCGCT, the switch fluorescence ratio came out at 1.12. Take GATTATGATA: the switch fluorescence ratio is 0.985. On to GGATACGCAG, for which the switch fluorescence ratio stood at 1.05. The figure for GGCCGGAGTA is 1.04; for TAGATGCCGC it is 0.992; for GAGGCGACGG it is 1.02. Consider ATAGTTTGGG, for which the switch fluorescence ratio was 0.957. The figure for AAGTTGGTAC is 1.07. With CACGCGGACC, the switch fluorescence ratio was 1.4.

For the sequence GACACCGGCC, the switch fluorescence ratio is 1.32. For the sequence CTCGCTCCTA, the switch fluorescence ratio was 1. CACGTTTTG: the switch fluorescence ratio amounted to 0.993.

GCATGCTACC: the switch fluorescence ratio was 1.18. The figure for ATTGTATCTC is 0.97. The figure for GGTTGGGTAC is 1.05; for GGTATCGCGA it is 0.945.

As to TTTGAGTAG, the switch fluorescence ratio was determined as 0.965.

Take CGGAGCGCAC: the switch fluorescence ratio stood at 4.5.

As for AGTTCCATTA, the switch fluorescence ratio stood at 0.988. TACCGAAGCT: the switch fluorescence ratio was 1.09. Consider GAGACTAGTA, for which the switch fluorescence ratio amounted to 1.03. The figure for ACTGGGGCTG is 1. The figure for GTGAAAGTAT is 0.995; for TCCTCTACT it is 1.19. As for ACATGTGTGG, the switch fluorescence ratio worked out at 1.02.

As to GCGCCCGCCA, the switch fluorescence ratio is 1.07. The figure for CCATAGCGCG is 1.2; for CGTTTAAAGT it is 0.989. As for ATATAAATCC, the switch fluorescence ratio is 1.01. Regarding ACGACGTCGA, the switch fluorescence ratio was 1.08.

Consider TTTGGATAA, for which the switch fluorescence ratio was found to be 0.938. On to TAGCAGAATT, for which the switch fluorescence ratio is 1.03.

In the case of CCAGGCTTCC, the switch fluorescence ratio was 2.55. The figure for ATGTAATTCT is 1.01.

On to AGAACTGAGC, for which the switch fluorescence ratio was found to be 1.07.

As to AGAATTTTGA, the switch fluorescence ratio was 1.02. The figure for TTATGTCCAG is 1.02; for TCGGAGTGTT it is 1.05. The figure for AATGTTA is 0.999; for GCTTAAAGCG it is 0.985; for AATAAGGGGT it is 0.98. The figure for GGGCATGGTC is 0.98. On to GATCAATGGC, for which the switch fluorescence ratio came out at 0.936. The figure for ACCCGATCTG is 0.998; for CAGGATCACA it is 0.987; for GGGATTTAGC it is 1.03. Consider CTCAAAGTAG, for which the switch fluorescence ratio was 1.18.

Take TACCCGGAAA: the switch fluorescence ratio is 1.01. The figure for TGTGCTGGGC is 0.992. The figure for AACTTCCCT is 1.05; for GCTCCGGGTT it is 1.98. The figure for GAAAGCGACT is 1.08; for GAAAGGTGAC it is 1.07. Regarding GGGGCCCCC, the switch fluorescence ratio was determined as 0.987. The figure for TTCCTGATTA is 1.01.

For the sequence TCACCCGATT, the switch fluorescence ratio was 1.02. The figure for AAAGACGGGG is 1.06.

For the origin of these results see the supplement of paper PMC10126150.
